Experimental data as given in the supplement of paper PMC10369915.
Some of the results follow. No stated cut-off is given here; in the data, active = 3.2 or more and inactive = the rest. The signal is at background level for most entries.

molecular target: SHP2 C-SH2 domain E139D; experiment: enrichment score (SH2-bound / input frequency) (ratio); bacterial display of known human phosphotyrosine sites (pTyr-Var adds point mutants) read by sequencing; higher = stronger binding; tyrosines were phosphorylated by kinases first; conditions: peptide library: pTyr-Var
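Further: displayed peptides selected on beads carrying the immobilized SH2 domain, with library peptides lacking any tyrosine serving as negative controls.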

Binder | enrichment score
RDWSLYFKIIE [KRT18_Y129_H128L] | inactive: 0.69
HSGIYYKPESL [L2HGDH_Y103] | inactive: 1.14
RMLRKYQELMS [KRT74_Y425_E424K] | inactive: 0.442
KENITYMKREQ [L1TD1_Y24] | inactive: 0.748
DIRAQYDELAR [KRT18_Y256] | inactive: 0.568
IHSGIYFKPES [L2HGDH_Y102_YF] | inactive: 1.3
KAESWYQTKFE [KRT75_Y342_E337K_YF] | inactive: 0.841
QEIATYRPLLE [KRT14_Y415_R417P] | inactive: 0.958
DRQASYLDKVR [KRT16_Y131_L128Q] | inactive: 0.681
IRSGIYFKPES [L2HGDH_Y102_H98R_YF] | inactive: 1.08
SSSGGYGGGYG [KRT19_Y61_A60G] | inactive: 0.63
STFVPCEIKVQ [L1CAM_Y784_Y784C] | inactive: 0.802
ANAFIYDVQLP [L1CAM_Y420_V421D_YF] | inactive: 1.01
YGGLRCGYGVL [KRTAP20-2_Y13_Y13C] | inactive: 0.858
KIKGRYEKCEP [KRT26_Y119_W118R] | active: 4.48
GLGGGCGGASG [KRT8_Y54_Y54C] | inactive: 0.607
PNAFIYVVQLP [L1CAM_Y420_A415P_YF] | inactive: 1
GLRCGYGVLGG [KRTAP20-2_Y15_Y13C] | inactive: 0.896
GLRFGYGGLGG [KRTAP20-2_Y15_V17G_YF] | inactive: 1.07

molecular target: SHP2 C-SH2 domain wild-type; experiment: as above; conditions: peptide library: pTyr-Var

Binder | enrichment score
RDWSLYFKIIE [KRT18_Y129_H128L] | inactive: 0.98
HSGIYYKPESL [L2HGDH_Y103] | inactive: 1
RMLRKYQELMS [KRT74_Y425_E424K] | inactive: 0.332
KENITYMKREQ [L1TD1_Y24] | inactive: 0.941
DIRAQYDELAR [KRT18_Y256] | inactive: 0.65
IHSGIYFKPES [L2HGDH_Y102_YF] | inactive: 1.23
KAESWYQTKFE [KRT75_Y342_E337K_YF] | inactive: 0.675
QEIATYRPLLE [KRT14_Y415_R417P] | inactive: 0.817
DRQASYLDKVR [KRT16_Y131_L128Q] | inactive: 0.727
IRSGIYFKPES [L2HGDH_Y102_H98R_YF] | inactive: 1.23
SSSGGYGGGYG [KRT19_Y61_A60G] | inactive: 0.606
STFVPCEIKVQ [L1CAM_Y784_Y784C] | inactive: 1
ANAFIYDVQLP [L1CAM_Y420_V421D_YF] | inactive: 0.883
YGGLRCGYGVL [KRTAP20-2_Y13_Y13C] | inactive: 1.11
KIKGRYEKCEP [KRT26_Y119_W118R] | active: 3.96
GLGGGCGGASG [KRT8_Y54_Y54C] | inactive: 0.618
PNAFIYVVQLP [L1CAM_Y420_A415P_YF] | inactive: 1.3
GLRCGYGVLGG [KRTAP20-2_Y15_Y13C] | inactive: 1.01
GLRFGYGGLGG [KRTAP20-2_Y15_V17G_YF] | inactive: 0.948

molecular target: SHP2 N-SH2 domain L43F; experiment: as above; conditions: peptide library: pTyr-Var

Binder | enrichment score
RDWSLYFKIIE [KRT18_Y129_H128L] | inactive: 0.718
HSGIYYKPESL [L2HGDH_Y103] | inactive: 1.17
RMLRKYQELMS [KRT74_Y425_E424K] | inactive: 0.233
KENITYMKREQ [L1TD1_Y24] | inactive: 0.594
DIRAQYDELAR [KRT18_Y256] | inactive: 0.667
IHSGIYFKPES [L2HGDH_Y102_YF] | inactive: 1.45
KAESWYQTKFE [KRT75_Y342_E337K_YF] | inactive: 0.703
QEIATYRPLLE [KRT14_Y415_R417P] | inactive: 0.869
DRQASYLDKVR [KRT16_Y131_L128Q] | inactive: 0.737
IRSGIYFKPES [L2HGDH_Y102_H98R_YF] | inactive: 1.31
SSSGGYGGGYG [KRT19_Y61_A60G] | inactive: 0.634
STFVPCEIKVQ [L1CAM_Y784_Y784C] | inactive: 1.01
ANAFIYDVQLP [L1CAM_Y420_V421D_YF] | inactive: 1.03
YGGLRCGYGVL [KRTAP20-2_Y13_Y13C] | inactive: 0.95
KIKGRYEKCEP [KRT26_Y119_W118R] | active: 3.68
GLGGGCGGASG [KRT8_Y54_Y54C] | inactive: 0.42
PNAFIYVVQLP [L1CAM_Y420_A415P_YF] | inactive: 0.989
GLRCGYGVLGG [KRTAP20-2_Y15_Y13C] | inactive: 0.919
GLRFGYGGLGG [KRTAP20-2_Y15_V17G_YF] | inactive: 0.909

molecular target: SHP2 N-SH2 domain T42A; experiment: as above; conditions: peptide library: pTyr-Var

Binder | enrichment score
RDWSLYFKIIE [KRT18_Y129_H128L] | inactive: 0.415
HSGIYYKPESL [L2HGDH_Y103] | inactive: 0.832
RMLRKYQELMS [KRT74_Y425_E424K] | inactive: 0.288
KENITYMKREQ [L1TD1_Y24] | inactive: 0.542
DIRAQYDELAR [KRT18_Y256] | inactive: 0.583
IHSGIYFKPES [L2HGDH_Y102_YF] | inactive: 1.37
KAESWYQTKFE [KRT75_Y342_E337K_YF] | inactive: 0.706
QEIATYRPLLE [KRT14_Y415_R417P] | inactive: 0.708
DRQASYLDKVR [KRT16_Y131_L128Q] | inactive: 0.676
IRSGIYFKPES [L2HGDH_Y102_H98R_YF] | inactive: 1.04
SSSGGYGGGYG [KRT19_Y61_A60G] | inactive: 0.661
STFVPCEIKVQ [L1CAM_Y784_Y784C] | inactive: 0.744
ANAFIYDVQLP [L1CAM_Y420_V421D_YF] | inactive: 0.884
YGGLRCGYGVL [KRTAP20-2_Y13_Y13C] | inactive: 0.864
KIKGRYEKCEP [KRT26_Y119_W118R] | active: 3.34
GLGGGCGGASG [KRT8_Y54_Y54C] | inactive: 0.469
PNAFIYVVQLP [L1CAM_Y420_A415P_YF] | inactive: 0.816
GLRCGYGVLGG [KRTAP20-2_Y15_Y13C] | inactive: 0.68
GLRFGYGGLGG [KRTAP20-2_Y15_V17G_YF] | inactive: 1.02

molecular target: SHP2 N-SH2 domain T52S; experiment: as above; conditions: peptide library: pTyr-Var

Binder | enrichment score
RDWSLYFKIIE [KRT18_Y129_H128L] | inactive: 0.452
HSGIYYKPESL [L2HGDH_Y103] | inactive: 0.991
RMLRKYQELMS [KRT74_Y425_E424K] | inactive: 0.363
KENITYMKREQ [L1TD1_Y24] | inactive: 0.664
DIRAQYDELAR [KRT18_Y256] | inactive: 0.591
IHSGIYFKPES [L2HGDH_Y102_YF] | inactive: 1.68
KAESWYQTKFE [KRT75_Y342_E337K_YF] | inactive: 0.815
QEIATYRPLLE [KRT14_Y415_R417P] | inactive: 0.821
DRQASYLDKVR [KRT16_Y131_L128Q] | inactive: 0.682
IRSGIYFKPES [L2HGDH_Y102_H98R_YF] | inactive: 1.41
SSSGGYGGGYG [KRT19_Y61_A60G] | inactive: 0.578
STFVPCEIKVQ [L1CAM_Y784_Y784C] | inactive: 0.797
ANAFIYDVQLP [L1CAM_Y420_V421D_YF] | inactive: 1.06
YGGLRCGYGVL [KRTAP20-2_Y13_Y13C] | inactive: 0.923
KIKGRYEKCEP [KRT26_Y119_W118R] | active: 3.46
GLGGGCGGASG [KRT8_Y54_Y54C] | inactive: 0.542
PNAFIYVVQLP [L1CAM_Y420_A415P_YF] | inactive: 1.01
GLRCGYGVLGG [KRTAP20-2_Y15_Y13C] | inactive: 0.874
GLRFGYGGLGG [KRTAP20-2_Y15_V17G_YF] | inactive: 0.928

molecular target: SHP2 N-SH2 domain wild-type; experiment: as above; conditions: peptide library: pTyr-Var

Binder | enrichment score
RDWSLYFKIIE [KRT18_Y129_H128L] | inactive: 1.01
HSGIYYKPESL [L2HGDH_Y103] | inactive: 1.14
RMLRKYQELMS [KRT74_Y425_E424K] | inactive: 0.442
KENITYMKREQ [L1TD1_Y24] | inactive: 0.67
DIRAQYDELAR [KRT18_Y256] | inactive: 0.596
IHSGIYFKPES [L2HGDH_Y102_YF] | inactive: 1.43
KAESWYQTKFE [KRT75_Y342_E337K_YF] | inactive: 0.708
QEIATYRPLLE [KRT14_Y415_R417P] | inactive: 0.949
DRQASYLDKVR [KRT16_Y131_L128Q] | inactive: 0.728
IRSGIYFKPES [L2HGDH_Y102_H98R_YF] | inactive: 1.15
SSSGGYGGGYG [KRT19_Y61_A60G] | inactive: 0.666
STFVPCEIKVQ [L1CAM_Y784_Y784C] | inactive: 0.961
ANAFIYDVQLP [L1CAM_Y420_V421D_YF] | inactive: 0.905
YGGLRCGYGVL [KRTAP20-2_Y13_Y13C] | inactive: 0.946
KIKGRYEKCEP [KRT26_Y119_W118R] | inactive: 3.11
GLGGGCGGASG [KRT8_Y54_Y54C] | inactive: 0.547
PNAFIYVVQLP [L1CAM_Y420_A415P_YF] | inactive: 1.36
GLRCGYGVLGG [KRTAP20-2_Y15_Y13C] | inactive: 1.07
GLRFGYGGLGG [KRTAP20-2_Y15_V17G_YF] | inactive: 1.12
